Measured values published in the supplement of paper PMC4604168 (melanoma cell lines).
This is one part of the list. Most values come without repeats; read them as rough.

Key:
Experiment in all cases: cell count relative to DMSO control; melanoma cells; higher = more viable cells
Settings in all cases: library dose: low library concentration; 72 h
MZ2-MEL = test system: MZ2-MEL
MeWo = test system: MeWo
RPMI7951 = test system: RPMI7951
RVH-421 = test system: RVH-421
SkMel28 = test system: SkMel28
SkMel30 = test system: SkMel30
SkMel5 = test system: SkMel5
UACC257 = test system: UACC257
UACC62 = test system: UACC62
SkMel2 = test system: SkMel2
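Also: cell number obtained by counting DAPI-stained nuclei in high-throughput microscope images with image analysis software, screen run in 1,536-well plates.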

Compound | cell count (MZ2-MEL) [%] | cell count (MeWo) [%] | cell count (RPMI7951) [%] | cell count (RVH-421) [%] | cell count (SkMel28) [%] | cell count (SkMel30) [%] | cell count (SkMel5) [%] | cell count (UACC257) [%] | cell count (UACC62) [%] | cell count (SkMel2) [%]
COc1cc2c(Oc3ccc4[nH]c(C)cc4c3F)ncnc2cc1OCCCN1CCCC1 [cediranib] + Cc1cc([N+](=O)[O-])ccc1NS(=O)(=O)c1cc(Cl)ccc1Cl [FH535] (first compound 0.4 µM, partner dose 1 µM) | 94.3 | 99.8 | 95.1 | 98.6 | 91.2 | 94.1 | 93.8 | 103 | 95.8 | –
CC(C)(C)c1cnc(CSc2cnc(NC(=O)C3CCNCC3)s2)o1 + COc1cc(N2CCC(N3CCN(C)CC3)CC2)ccc1Nc1ncc(Cl)c(Nc2ccccc2S(=O)(=O)C(C)C)n1 [NVP-TAE684] (first compound 0.01 µM, partner dose 0.08 µM) | 100 | 81.7 | 93.3 | 80.8 | 99.9 | 122 | 93.6 | 73.7 | 80.6 | –
CN(NC(=O)CC(=O)NN(C)C(=S)c1ccccc1)C(=S)c1ccccc1 + N#Cc1c(O)c2c(-c3ccc(-c4ccccc4O)cc3)csc2[nH]c1=O [A769662] (first compound 0.006 µM, partner dose 2 µM) | – | 112 | 92.7 | 90.3 | 102 | 87.5 | 101 | 86.4 | 80.2 | –
CC(C)(C)c1cnc(CSc2cnc(NC(=O)C3CCNCC3)s2)o1 + COc1cc2ncnc(Nc3ccc(Oc4ccccc4)cc3)c2cc1OC [SrcI1] (first compound 0.01 µM, partner dose 2 µM) | – | 99.2 | 95.5 | 116 | 73.3 | 105 | 109 | 96 | 90.8 | –
CCCCCCCCc1ccc(CCC(N)(CO)CO)cc1 [fingolimod] + Cc1ccc(NC(=O)c2cccc(N(C)C)c2)cc1NC(=O)c1ccc(O)cc1 [ZM336372] (first compound 2 µM, partner dose 2 µM) | – | 94.8 | 79.5 | 99.6 | 82.6 | 88.7 | 84.7 | 89 | 62.1 | 90.3
CCc1ccc(CCOc2ccc(CC3SC(=O)NC3=O)cc2)nc1 (configuration not stated) [pioglitazone] + Oc1nc(-c2ccc(C(F)(F)F)cc2)nc2c1CSCC2 [XAV939] (first compound 2 µM, partner dose 2 µM) | 97.9 | 96 | 99.4 | 107 | 100 | 118 | 80.6 | 83.7 | 99.2 | –
NC(=O)c1ccc(N(C(N)=O)c2c(F)cccc2F)nc1-c1ccc(F)cc1F + CO[C@H]1C[C@@H]2CC[C@@H](C)[C@@](O)(O2)C(=O)C(=O)N2CCCC[C@H]2C(=O)O[C@H]([C@H](C)C[C@@H]2CC[C@@H](OCCO)[C@H](OC)C2)CC(=O)[C@H](C)/C=C(\C)[C@@H](O)[C@@H](OC)C(=O)[C@H](C)C[C@H](C)/C=C/C=C/C=C/1C [everolimus] (first compound 0.4 µM, partner dose 0.02 µM) | – | 60.9 | 79.4 | 70 | 52.4 | 57.9 | – | – | 65.4 | –
CCCCCCCCc1ccc(CCC(N)(CO)CO)cc1 [fingolimod] + CC(C)(C)c1cnc(CSc2cnc(NC(=O)C3CCNCC3)s2)o1 [SNS-032] (first compound 2 µM, partner dose 0.01 µM) | – | 99.6 | 66.9 | 111 | 85.4 | 98.9 | 86.1 | 76.9 | 79.2 | 103
